B1: OR4K15 (parent)
chain: GUUAACGGUCAUAGGCCAUGGAAACUAGGAGCACCAUUUCGCUGCCAGUGAAGAAAUGAACAAAGAAAAUCUGGGCCAGGCAGGCAUCAAAAGAAAUAGUCUUGCGCUCAACCAGAAAGUCUGUAAUCAUUUUAAGGGUA

The source gives no read counts; variants with many changes may rest on few reads.

The variants in this data set derive from B1. The data set is described as follows: self-cleavage, relative activity (ratio to wild type); higher = more cleavage; in vitro, sequencing; the parent is a self-cleaving ribozyme.
Turning to GUUAACGGUCAUAGGCCAUGGAAACUAGGAGCACCAUUCCGCUGCCAGUGAAGAAAUGAACAAAGAAAAUCUGGGCCAGGCAGGCAUCAGAAGAAAUAGUCUUGCGCUCAACCAGAAAGUCUGUAAUCAUUUUAAGGGAA [U39C A90G U139A], the self-cleavage stood at 1.06.

For GUUAACGGUCAUAGGCCAUGGAAACUAGGAGCACCAUUCCGCUGCCAGUGAAGAAAUGAACAAAGAAAAUCUGGGCCAGGCAGGCAUCAGAAGAAAUAGUCUUGCGCUCAACCUGAAAGUCUGUAAUCAUUUUAAGGGUA [U39C A90G A114U], the self-cleavage was found to be 0.08.

Turning to GUUAACGGUCAUAGGCCAUGGAAACUAGGAGCACCAUUCCGCUGCCAGUGAAGAAAUGAACAAAGAAAAUCUGGGCCAGGCAGGCAUCAAAAGAAAUAGUCUUGCGCUCAACCAGAGGGUCUGUAAUCAUUUUAAGGGUA [U39C A117G A118G], the self-cleavage was 2.31.

Consider GUUAACGGUCAUAGGCCAUGGAAACUAGGAGCACCAUUCCGCUGCCAGUGAAGAAAUGAACAAAGAGAAUCUGGGCCUGGCAGGCAUCAAAAGGAGUAGUCUUGCGCUCAACCAGAAAGUCUGUAAUCAUUCUAAGGGUA [U39C A67G A78U A94G A96G U132C], for which the self-cleavage turned out to be 0.2.

With GUUAACGGUCAUAGGCCAUGGAAACUAGGAGCACCAUUCCGCUGCCAGUGAAGAAAUGAACAAAGAAAAUCUGGGCCAGGCAGGCAUCGAAAGGAAUAGUCUUGCGCUCAACCAGAAAGUCCGUAUUCAUUUUAAGGGUA [U39C A89G A94G U122C A126U], the self-cleavage came to 0.76.

As for GUUAACGGUCAUAGGCCAUGGAAACUAGGAGCACCAUUCCGCUGCCAGUGAAGAAAUGAACAAAGAAAAUCUGGGCCAGGCAGGCAUCAAAAGAAGUAGUCUUGCGCUCAACCAGGAAGUCUGUAAUCAUUUUAAGGGUA [U39C A96G A116G], the self-cleavage is 1.22.

Turning to GUUAACGGUCAUAGGCCAUGGAAACUAGGAGCACCAUUCCGCUGCCAGUGAAGAAAUGAACAAGGAAAAUCUGGGCCAGGCAGGCAUCAAAAGAAAUAGUCUUGCGCUCAACCAGAAAGUCUGUAAUCGUUUUAAGGGUA [U39C A64G A129G], the self-cleavage was 1.21.

Consider GUUAACGGUCAUAGGCCAUGGAAACUAGGAGCACCAUUCCGCUGCCAGUGAAGAAAUGAACAAAGAAAAUCUGGGCCAGGCAGGCAUCAAAAGAAAUAGUCUUGCGCUCAACCGGAAAGUCUGUAAUCAUUUUGAGGGUA [U39C A114G A134G], for which the self-cleavage stood at 0.38.

On to GUUAACGGUCAUAGGCCAUGGAAACUAGGAGCACCAUUCCGCUGCCAGUGAAGAAAUGAACAAAGAAAAUCUGGGCCAGGCAGGCAUCAAAAGGAAUAGUCUUGCGCUCAACCAGAAAGUCCGUAAUCAUUUUAAGGGUA [U39C A94G U122C], for which the self-cleavage was found to be 1.45.

As to GUUAACGGUCAUAGGCCAUGGAAACUAGGAGCACCAUUCCGCUGCCAGUGAAGAAAUGAACAAAGAAAAUCUGAGCCAGGCGGGCAUCAAAAGAAAUAGUCUUGCGCUCAACCAGAAAGUCAGUAAUCAUUUUAAGGGUA [U39C G74A A82G U122A], the self-cleavage came to 0.22.

With GUUAACGGUCAUAGGCCAUGGAAACUAGGAGCACCAUUCCGCUGCCAGUGAAGAAAUGAACAAAGAGAAUCUGGGCCAGGCAGGCAUCAAAAGAAAUAGUCUUGCGCUCAACCAGAAAGUCUGUAAUCAUUUUAAAGGUA [U39C A67G G136A], the self-cleavage was 1.

As to GUUAACGGUCAUAGGCCAUGGAAACUAGGAGCACCAUUCCGCUGCCAGUGAAGAAAUGAACAAAGAAAAUCUGGGCCAGGCAGGCAUCUGAAGAAAUAGUCUUGCGCUCAACCAGAAAGUCUGUAAUCAUUUUAAGGGUA [U39C A89U A90G], the self-cleavage came to 1.8.

For GUUAACGGUCAUAGGCCAUGGAAACUAGGAGCACCAUUCCGCUGCCAGUGAAGAAAUGAACAAAGAAAAUCUGGGCCAGGCAGGCAUAAAAAGGAAUAGUCUUGCGCUCAACCAGAAAGUCUGUAGUCAUUUUAAGGGUA [U39C C88A A94G A126G], the self-cleavage came to 0.32.

Turning to GUUAACGGUCAUAGGCCAUGGAAACUAGGAGCACCAUUCCGCUGCCAGUGAAGAAAUGAACAAAGAAAAUCUGGGCCAGGCGGGCAUCAAAAGAAAUAGUCUUGCGCCCAACCAGAAAGUCUGUAAUCAUUUUAAGGGUA [U39C A82G U108C], the self-cleavage came to 0.02.

On to GUUAACGGUCAUAGGCCAUGGAAACUAGGAGCACCAUUCCGCUGCCAGUGAAGAAAUGAACAAAGAAAAUCUGGGCCAGGCAGGCAUCAAAAGAAAUAGUCUUGCGCUCGUCCAGAAAGCCUGUAAUCAUUUUAAGGGUA [U39C A110G A111U U120C], for which the self-cleavage is 0.

Consider GUUAACGGUCAUAGGCCAUGGAAACUAGGAGCACCAUUCCGCUGCCAGUGAAGAAAUGAACAAAGAGAAUCUGGGCCAGGCAGGCAUCAAAAGAAAUAGUCUUGAGCUCAACCAGAGAGUCUGUAAUCAUUUUAAGGGUA [U39C A67G C105A A117G], for which the self-cleavage was 0.03.

As for GUUAACGGUCAUAGGCCAUGGAAACUAGGAGCACCAUUCCGCUGCCAGUGAAGAAAUGAACAAAGAAAAUCUGGGCCAGGCAGGCAUCAAAAGAAAUAGUCUUGCGCUCAACCAGAAAGUCUGUAAUCAUUUUAGGGUAA [U39C A135G G138U U139A], the self-cleavage came out at 2.46.

On to GUUAACGGUCAUAGGCCAUGGAAACUAGGAGCACCAUUCCGCUGCCAGUGAAGAAAUGAACAAAGAAAAUCUGGGCCAGGCAGGCAUCUAAAGAAGUAGUCUUGCGCUCAACCAGAAAGUCUGUAAUCAUUUUAAGGGUA [U39C A89U A96G], for which the self-cleavage amounted to 2.34.

Turning to GUUAACGGUCAUAGGCCAUGGAAACUAGGAGCACCAUUCCGCUGCCAGUGAAGAAAUGAACAAAGAAAAUCUGGGCCAGGCAGGCAUCAAAAGGAAUAGUCUUGCGCUCAACCAGAAAGUCUGUAGUCAUUUUAAGGGUA [U39C A94G A126G], the self-cleavage worked out at 0.28.

With GUUAACGGUCAUAGGCCAUGGAAACUAGGAGCACCAUUCCGCUGCUAGUGAAGAAAUGGACAAAGAAAAUCUGGGCCAGGCAGGCAUCAAAAGAAAUGGUCUUGCGCUCAGCCAGAAAGUCUGUAAUCAUUUUAAGGGUA [U39C C46U A59G A98G A111G], the self-cleavage was determined as 0.01.

Take GUUAACGGUCAUAGGCCAUGGAAACUAGGAGCACCAUUCCGCUGCCAGUGAAGAAAUGAACAAAGAAAAUCUAGGCCAGGCAGGCAUCAAAAGAAAUAGUCUUGCGCCCAACCAGAAAGUCUGUAAUCAUUUUAAGGGUA [U39C G73A U108C]: the self-cleavage came to 0.03.

The values are drawn from the RNAGym collection of RNA variant scans (doi:10.7554/elife.90254).
